Results published in PubChem BioAssay AID651820 (National Center for Advancing Translational Sciences (NCATS), 2012).
About 12,000 (3.5%) of roughly 340,000 compounds were called active. Inconclusive results, whose numbers are uncertain, are shown with a selection of clear calls. The call rests on the fitted dose curve; in most records, active means well fitted inhibition curve with a large enough effect; inconclusive means small, poorly fitted or top-dose-only effect, or another doubt; inactive means no such curve, though single readings can be large or run the other way. No potency is given beside an inconclusive call; the fits are too rough.

Test: qHTS Assay for Inhibitors of Hepatitis C Virus (HCV)
Conditions: Huh7.5.1 HCVcc-Cre (HCVcc is cell-culture hepatitis C virus) infection, luciferase reporter, 44 h; activity change, negative = inhibition: at 41.8 µM (top of the series) unless noted
How it was run: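 HCVcc-Cre virus at an moi near 0.5 was added right after compound to cells cultured 4 h from seeding (1,000 cells/well). Luciferase activity was determined 44 h later, 15 min after substrate addition at RT.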
On the % scale 0 is the no-effect control and ±100 the full control effect; potency means the concentration at half of the fitted maximal effect; tags describe the fitted curve by direction and shape.

Row | SMILES | Potency | activity change, negative = inhibition
1 | O=C(CCn1c(=O)c2ccccc2n(CC(=O)NC2CCCC2)c1=O)NCCc1ccc(Cl)cc1 | inconclusive [inhibitor, partial curve] | –
2 | Cc1ccccc1C(=O)c1cccn1CC(=O)NC1CCCC(C)C1C (centres undefined) | inconclusive [inhibitor, single point] | –
3 | CN(C)C(=O)CN1CCN(Cc2cn(C)nc2-c2ccc3c(c2)OCCO3)CC1 | – | inactive: 18.7%
4 | CC1CN(CC(=O)Nc2cccc(C(=O)Nc3cccc(C(F)(F)F)c3)c2)CC(C)O1 (centres undefined) | inconclusive [inhibitor, single point] | –
5 | COc1ccc(-c2csc3nc(-c4cccnc4)nc(N4CCC(C(N)=O)CC4)c23)cc1OC | – | inactive: -8.7%
6 | COc1ccc(NS(=O)(=O)c2cccc(C(=O)O)c2)cc1S(=O)(=O)N1CCCCC1 | – | inactive: 20.7%
7 | Cc1c(Br)ccc(NC(=O)Cn2nc(-c3cccs3)ccc2=O)c1C | inconclusive [inhibitor, full curve] | –
8 | CC1CCc2c(sc3nc(C4CC4)nc(N4CCN(C(=O)c5ccco5)CC4)c23)C1 (centres undefined) | active: 4.47 µM | –
9 | O=c1oc2cc(O)ccc2cc1-c1nc2c(s1)CCc1ccccc1-2 | inconclusive [inhibitor, single point] | –
10 | CC(C)OCCCNC(=O)c1cc(-c2cccs2)nc2ccccc12 | inconclusive [inhibitor, single point] | –
11 | O=S1(=O)c2ccccc2C(CCO)N1Cc1ccccc1 (centres undefined) | – | inactive: 8.23%
12 | O=C(CSC1=NCCS1)N1CCN(c2ccccc2)CC1 | inconclusive [inhibitor, single point] | –
13 | CC(C)CNc1oc(-c2ccccc2Cl)nc1C#N | inconclusive [inhibitor, single point] | –
14 | O=C1NC[C@H](Cc2ccccc2)N(CC2CCN(CCCC3CCCC3)CC2)C1=O | – | inactive: 7.65%
15 | COc1cccc(NC(=O)C2CCC2)c1 | – | inactive: 4.7%
16 | O=C(Cn1nnc(-c2ccc(Cl)cc2)n1)NC1CCN(Cc2ccccc2)CC1 | inconclusive [inhibitor, single point] | –
17 | Cc1ccc(C)c(CN2CCC(CNC(=O)Nc3ccc(Br)cc3F)CC2)c1 | inconclusive [inhibitor, single point] | –
18 | CN1C(=O)c2cccc3c(N(C)C)ccc(c23)C1=O | inconclusive [inhibitor, partial curve] | –
19 | CC1CCCCN1CCNC(=O)c1ccc2c(c1)N(Cc1cccc(Cl)c1)C(=O)c1ccccc1S2=O (centres undefined) | inconclusive [inhibitor, partial curve] | –
20 | C=CCNc1sc(C(=O)C(C)(C)C)c(N)c1C#N | inconclusive [inhibitor, full curve] | –
21 | CC1(C)Cc2cccc(OCC(=O)Nc3cc(S(C)(=O)=O)ccc3Cl)c2O1 | inconclusive [inhibitor, single point] | –
22 | O=C(CC(SCCO)c1ccc2c(c1)OCO2)c1ccco1 (centres undefined) | inconclusive [inhibitor, full curve, poor fit] | –

Row | SMILES | Potency | activity change, negative = inhibition
23 | CCCCc1nc2sc3c(c2c(=O)n1NC(=O)c1ccco1)CC(C)(C)OC3 | – | inactive: 11%
24 | O=C(Nc1ccc(S(=O)(=O)N2CCOCC2)cc1)C1CCN(S(=O)(=O)c2ccc(F)cc2)CC1 | inconclusive [inhibitor, partial curve] | –
25 | CN(C)CCCn1c2c(c(SCC(=O)Nc3cccc4ccccc34)nc1=O)CCCC2 | inconclusive [inhibitor, single point] | –
26 | CC1CC(C)CN(C(=O)COC(=O)CNS(=O)(=O)/C=C/c2ccccc2)C1 (centres undefined) | inconclusive [inhibitor, single point] | –
27 | N#C/C(=C/c1ccc(N2CCCC2)c([N+](=O)[O-])c1)c1nc2ccccc2[nH]1 | – | inactive: -27.9%
28 | Cc1cccc(Nc2nnc(-c3ccc(C(=O)N4C[C@H]5C[C@H](C4)c4cccc(=O)n4C5)cc3)c3ccccc23)c1 | inconclusive [inhibitor, single point] | –
29 | CC(C)(C)C(=O)Nc1ccc2oc(-c3cc(F)c(F)cc3Cl)nc2c1 | inconclusive [inhibitor, partial curve] | –
30 | Cn1c(=O)c2[nH]c(CCCCCCCCc3nc4ccccc4[nH]3)nc2n(C)c1=O | inconclusive [inhibitor, full curve] | –
31 | Cc1cc(C(=O)CSc2nnc(-c3ccco3)o2)c(C)n1Cc1ccco1 | inconclusive [inhibitor, partial curve] | –
32 | CCCn1cc(SCC(=O)NCC2CCCO2)c2ccccc21 (centres undefined) | inconclusive [inhibitor, partial curve] | –
33 | Cc1cnc(C(=O)NCCc2ccc(Cl)cc2)cn1 | – | inactive: -18.1%
34 | Cc1[nH]n(-c2ccc([N+](=O)[O-])cc2)c(=O)c1C=NCC1CCCO1 (centres undefined) | – | inactive: -12.1%
35 | COc1cccc(/C=N/Nc2ncnc3c2ncn3Cc2ccccc2)c1O | inconclusive [inhibitor, full curve] | –
36 | CCS(=O)(=O)c1ncc(Cl)c(C(=O)Nc2ccc(C)cc2)n1 | inconclusive [inhibitor, single point] | –
37 | CCN(CC)c1ccc(-n2c(C)cc(C=O)c2C)cc1 | inconclusive [inhibitor, partial curve] | –
38 | COc1ccc(C2CC(c3cccs3)=NN2C(=O)CSC2=NCCS2)cc1 (centres undefined) | inconclusive [inhibitor, single point] | –
39 | COc1cc(OC)c(C(=O)OCC(=O)NCCc2ccccc2)cc1OC | – | inactive: -20.5%
40 | COc1cccc(/C=N/NC(=O)CNC(=O)c2ccco2)c1O | – | inactive: -3.66%
41 | CN(c1ccccc1)c1ccc(/C=N/NC(=O)CC#N)cc1 | inconclusive [inhibitor, partial curve] | –
42 | Cc1ccc(-c2cn3nc(-c4ccccc4)c(-c4ccccc4)nc3n2)cc1 | – | inactive: -17.9%
43 | Nc1nnc(CC(=O)N/N=C/c2ccc(-c3ccc(F)cc3)o2)s1 | – | inactive: 15.5%
44 | CCN(CC)c1ccc(/C=N/NC(=O)CCC(=O)NCc2ccccc2)c(O)c1 | inconclusive [inhibitor, single point] | –
